Data published in patent CN114423789A (ZHEJIANG JIANMAI PHARMACEUTICAL CO LTD, dated 2022).

How the values were obtained:
[1] = target: recombinant human CD3 protein (human); assay: ELISA, human CD3 protein coated
[2] = target: T1, recombinant human mesothelin (full-length extracellular domain) (human, UniProt Q13421 296-580, limits assumed); assay: ELISA, human mesothelin coated
T1 construct: extracellular domain; Bought protein coated on ELISA plates at 50 ng per well; also called 重组人间皮素; 人间皮素(MSLN)蛋白

[3] = target: cell-surface mesothelin (on mesothelin-transfected HEK293, H226, N87 and LS174T-MSLN(2B6) cells) (human, UniProt Q13421 296-598); assay: cell-based or functional assay

- EC50 [1]: 12.1 nM
- EC50 [2]: 8.3 nM
B1: CMD007 (M10-based MSLN×CD3 HBiTE) (bispecific antibody)
light: SYVLTQPPSVSVSPGQTARITCSGDALPKQYAFWYQQKPGQAPVLVIYKDSERPSGIPERFSGSSSGTTVTLTISGVQAEDEADYYCQSADSSATSVIFGGGTKLTVLGGGGSGGGGSGGGGSEIVVTQSPATLSVSPGERATLSCRSSTGAVTTSNYANWVQQKPGQAPRGLIGGANKRAPGVPARFSGSLSGDEATLTISSLQSEDFAVYYCALWYSNLWVFGQGTKLEIKRTVAAPSVFIFPPSDEQLKSGTASVVCLLNNFYPREAKVQWKVDNALQSGNSQESVTEQDSKDSTYSLSSTLTLSKADYEKHKVYACEVTHQGLSSPVTKSFNRGE[gap - human IgG1 Fc with T366L Y407H (EU numbers)]
heavy: QLVETGGGLVQPGRSLRLSCAASGFTFDDYAMHWVRQAPGKGLEWVSGISWNSGSIGYADSVKGRFTISRDNAKNSLYLQMNSLRAEDTAVYYCARDSGSSGWYGYFQHWGQGTLVTVSSGSSGGGGSGGGGSEVQLVESGGGLVQPGGSLRLSCAASGFTFNTYAMNWVRQAPGKGLEWVARIRSKYNNYATYYADSVKGRFTISRDDSKNTLYLQMNSLRAEDTAVYYCARHGNFGSSYVSYFAYWGQGTTVTVSSASTKGPSVFPLAPSSKSTSGGTAALGCLVKDYFPEPVTVSWNSGALTSGVHTFPAVLQSSGLYSLSSVVTVPSSSLGTQTYICNVNHKPSNTKVDKKVEPKS[gap - human IgG1 Fc with T366L Y407H (EU numbers)]
notes: Heterodimer of one light and one heavy chain, about 120 kDa non-reduced; also called 基于M10的MSLN×CD3 HBiTE; 靶向间皮素和CD3的双特异性抗体
- EC50 of killing of H226 cells with human PBMC (CCK8, target:effector 1:10) [3]: 0.812 ng/mL
- EC50 of killing of LS174T-MSLN(2B6) cells with human PBMC (CCK8, target:effector 1:5) [3]: 1.69 ng/mL
- EC50 of killing of N87 cells with human PBMC (CCK8, target:effector 1:10) [3]: 1.38 ng/mL
